# The supplement of paper PMC4604168 (melanoma cell lines)
# Some of the results follow. Single values are uncertain, as repeats are few or missing.
# How the values were obtained:
# Test in all cases: cell count relative to DMSO control; melanoma cells; higher = more viable cells
# Conditions in all cases: library dose: low library concentration; 72 h
# MZ2-MEL = test system: MZ2-MEL
# MeWo = test system: MeWo
# RPMI7951 = test system: RPMI7951
# RVH-421 = test system: RVH-421
# SkMel28 = test system: SkMel28
# SkMel2 = test system: SkMel2
# SkMel30 = test system: SkMel30
# SkMel5 = test system: SkMel5
# UACC257 = test system: UACC257
# UACC62 = test system: UACC62
# 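Also: cell number obtained by counting DAPI-stained nuclei in high-throughput microscope images with image analysis software, screen run in 1,536-well plates.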
Structure (SMILES),cell count (MZ2-MEL) [%],cell count (MeWo) [%],cell count (RPMI7951) [%],cell count (RVH-421) [%],cell count (SkMel28) [%],cell count (SkMel2) [%],cell count (SkMel30) [%],cell count (SkMel5) [%],cell count (UACC257) [%],cell count (UACC62) [%]
"Cc1cc(Nc2cc(N3CCN(C)CC3)nc(/C=C/c3ccccc3)n2)n[nH]1 + Oc1cc(-c2nc(-c3ccccc3)[nH]c2-c2ccncc2)ccc1Cl [L779450] (first compound 0.04 µM, partner dose 0.2 µM)",76.9,94.6,90.8,94.8,55.5,91.3,95.3,100,84.4,57.2
"COc1ccc(C2=N[C@@H](c3ccc(Cl)cc3)[C@@H](c3ccc(Cl)cc3)N2C(=O)N2CCNC(=O)C2)c(OC(C)C)c1 [Nutlin-3] + O=C(O)c1ccc2c(c1)nc(Nc1cccc(Cl)c1)c1ccncc12 [CX4945] (first compound 0.1 µM, partner dose 0.4 µM)",99.1,87.2,80.3,95.4,84.1,95.5,105,,,88.4
"COc1ccc(C2=N[C@@H](c3ccc(Cl)cc3)[C@@H](c3ccc(Cl)cc3)N2C(=O)N2CCNC(=O)C2)c(OC(C)C)c1 [Nutlin-3] + COC(=O)c1sccc1S(=O)(=O)Nc1ccc(Nc2ccccc2)cc1OC [GSK0660] (first compound 0.1 µM, partner dose 1 µM)",98.4,111,119,69.8,92.8,97,111,95.1,109,74.6
"COc1ccc(C2=N[C@@H](c3ccc(Cl)cc3)[C@@H](c3ccc(Cl)cc3)N2C(=O)N2CCNC(=O)C2)c(OC(C)C)c1 [Nutlin-3] + COc1ccc(COc2ccc(Cc3cnc(N)nc3N)cc2OC)cc1 [GW2580] (first compound 0.1 µM, partner dose 1 µM)",96.4,98.3,109,71.3,92.5,97.4,76.3,89.6,105,91.4
"Cc1cc(Nc2cc(N3CCN(C)CC3)nc(/C=C/c3ccccc3)n2)n[nH]1 + O=C(Nc1cccc(Cl)c1)Nc1ncc(CCNc2ncnc3ccsc23)s1 [SNS314] (first compound 0.04 µM, partner dose 0.0008 µM)",110,108,91.8,106,99.7,100,91.3,92.7,107,95.9
"Cc1cn(-c2cc(NC(=O)c3ccc(C)c(Nc4nccc(-c5cccnc5)n4)c3)cc(C(F)(F)F)c2)cn1 [nilotinib] + Cn1cc(/C=C2\C(=O)Nc3cccnc32)c2ccccc21 [GW441756] (first compound 0.2 µM, partner dose 0.4 µM)",91.6,107,102,290,85.7,96.8,106,76.6,76.9,96.7
"Cc1cn(-c2cc(NC(=O)c3ccc(C)c(Nc4nccc(-c5cccnc5)n4)c3)cc(C(F)(F)F)c2)cn1 [nilotinib] + COc1cc(Nc2ncc(F)c(Nc3ccc4c(n3)NC(=O)C(C)(C)O4)n2)cc(OC)c1OC [Tamatinib] (first compound 0.2 µM, partner dose 0.4 µM)",88.5,82.4,87.7,117,80.7,91.3,84.8,86.9,73.7,86.2
"COc1ccc(C2=N[C@@H](c3ccc(Cl)cc3)[C@@H](c3ccc(Cl)cc3)N2C(=O)N2CCNC(=O)C2)c(OC(C)C)c1 [Nutlin-3] + O=C(O)C(=O)Nc1sc2c(c1C(=O)O)CCNC2 [TCS401] (first compound 0.1 µM, partner dose 1.66667 µM)",100,90.9,106,73.3,87.8,89.3,106,80.3,95.4,92.9
"Cn1c(=O)n(-c2ccc(C(C)(C)C#N)cc2)c2c3cc(-c4cnc5ccccc5c4)ccc3ncc21 + Oc1nc(-c2ccc(C(F)(F)F)cc2)nc2c1CSCC2 [XAV939] (first compound 0.004 µM, partner dose 2 µM)",93.8,88.3,92.1,17.7,71.8,87.2,95,85.9,90.4,76.1
